Drawing on publication PMC11169412, this text covers binding for seven molecules.

The chains behind the UniProt entries cited, without tags or fusion partners. Where a name states a change or a piece, a line headed by the entry shows the natural chain unless it says otherwise.
UniProt P54290: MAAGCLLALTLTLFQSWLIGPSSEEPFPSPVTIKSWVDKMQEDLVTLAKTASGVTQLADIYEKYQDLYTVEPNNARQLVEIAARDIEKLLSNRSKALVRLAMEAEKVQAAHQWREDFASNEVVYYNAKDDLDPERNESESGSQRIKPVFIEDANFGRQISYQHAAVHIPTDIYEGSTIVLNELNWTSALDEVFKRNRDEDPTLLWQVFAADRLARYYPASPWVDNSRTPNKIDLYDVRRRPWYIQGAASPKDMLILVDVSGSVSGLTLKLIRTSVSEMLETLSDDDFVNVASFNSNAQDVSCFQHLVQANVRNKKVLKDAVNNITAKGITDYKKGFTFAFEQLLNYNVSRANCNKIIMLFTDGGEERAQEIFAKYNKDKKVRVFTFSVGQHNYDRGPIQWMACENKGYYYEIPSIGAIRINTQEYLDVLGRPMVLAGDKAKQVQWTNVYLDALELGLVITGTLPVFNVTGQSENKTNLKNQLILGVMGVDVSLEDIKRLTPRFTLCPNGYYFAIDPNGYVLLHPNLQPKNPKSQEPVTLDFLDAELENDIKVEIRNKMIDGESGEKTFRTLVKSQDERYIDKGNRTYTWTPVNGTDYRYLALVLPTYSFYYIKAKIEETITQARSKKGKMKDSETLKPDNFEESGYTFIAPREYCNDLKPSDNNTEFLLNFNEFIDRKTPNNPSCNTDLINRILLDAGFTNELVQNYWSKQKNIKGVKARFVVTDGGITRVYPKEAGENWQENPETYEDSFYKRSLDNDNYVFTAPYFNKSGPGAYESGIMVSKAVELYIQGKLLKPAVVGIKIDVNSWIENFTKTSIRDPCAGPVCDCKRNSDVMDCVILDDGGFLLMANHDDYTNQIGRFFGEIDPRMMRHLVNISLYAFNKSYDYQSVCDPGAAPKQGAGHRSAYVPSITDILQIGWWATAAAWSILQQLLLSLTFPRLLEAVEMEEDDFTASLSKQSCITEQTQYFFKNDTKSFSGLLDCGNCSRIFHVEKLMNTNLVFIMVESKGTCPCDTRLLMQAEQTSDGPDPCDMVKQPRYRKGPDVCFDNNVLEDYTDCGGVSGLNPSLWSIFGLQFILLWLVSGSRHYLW
UniProt Q9R0N3: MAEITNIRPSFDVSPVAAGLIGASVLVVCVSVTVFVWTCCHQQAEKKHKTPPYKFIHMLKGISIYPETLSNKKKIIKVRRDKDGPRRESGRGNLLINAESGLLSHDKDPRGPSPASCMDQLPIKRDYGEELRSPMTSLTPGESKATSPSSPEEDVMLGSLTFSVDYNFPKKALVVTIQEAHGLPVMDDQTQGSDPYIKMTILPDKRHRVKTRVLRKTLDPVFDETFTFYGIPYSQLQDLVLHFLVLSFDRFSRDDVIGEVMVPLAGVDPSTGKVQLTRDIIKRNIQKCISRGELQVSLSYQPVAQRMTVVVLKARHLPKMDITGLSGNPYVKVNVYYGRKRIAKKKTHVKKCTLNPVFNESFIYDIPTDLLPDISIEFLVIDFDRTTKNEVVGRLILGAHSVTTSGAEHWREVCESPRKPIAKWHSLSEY
UniProt Q5DTY9: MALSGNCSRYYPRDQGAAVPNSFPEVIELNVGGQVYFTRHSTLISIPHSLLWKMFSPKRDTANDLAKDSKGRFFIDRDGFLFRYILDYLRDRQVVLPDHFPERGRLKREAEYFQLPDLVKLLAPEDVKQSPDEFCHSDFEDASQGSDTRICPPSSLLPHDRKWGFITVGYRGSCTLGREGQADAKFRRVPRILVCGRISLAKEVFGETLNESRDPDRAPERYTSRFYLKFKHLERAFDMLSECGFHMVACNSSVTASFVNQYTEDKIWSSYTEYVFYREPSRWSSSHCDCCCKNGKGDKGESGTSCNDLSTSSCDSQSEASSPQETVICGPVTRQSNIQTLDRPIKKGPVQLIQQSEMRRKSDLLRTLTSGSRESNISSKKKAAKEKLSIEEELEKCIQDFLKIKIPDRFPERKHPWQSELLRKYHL
UniProt Q50H33: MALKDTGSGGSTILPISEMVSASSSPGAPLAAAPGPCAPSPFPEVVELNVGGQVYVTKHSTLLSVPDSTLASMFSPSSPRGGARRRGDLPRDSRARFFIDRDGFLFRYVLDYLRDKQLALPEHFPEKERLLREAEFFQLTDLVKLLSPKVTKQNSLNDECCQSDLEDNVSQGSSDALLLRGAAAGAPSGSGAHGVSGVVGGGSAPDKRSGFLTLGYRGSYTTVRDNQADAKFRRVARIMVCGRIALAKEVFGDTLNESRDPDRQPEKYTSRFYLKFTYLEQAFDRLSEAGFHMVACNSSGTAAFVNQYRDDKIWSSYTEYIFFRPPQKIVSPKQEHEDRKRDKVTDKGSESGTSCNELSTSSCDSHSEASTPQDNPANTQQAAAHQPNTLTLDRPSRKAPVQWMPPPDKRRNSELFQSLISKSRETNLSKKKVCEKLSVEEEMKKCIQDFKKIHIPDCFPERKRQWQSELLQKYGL
UniProt P46096: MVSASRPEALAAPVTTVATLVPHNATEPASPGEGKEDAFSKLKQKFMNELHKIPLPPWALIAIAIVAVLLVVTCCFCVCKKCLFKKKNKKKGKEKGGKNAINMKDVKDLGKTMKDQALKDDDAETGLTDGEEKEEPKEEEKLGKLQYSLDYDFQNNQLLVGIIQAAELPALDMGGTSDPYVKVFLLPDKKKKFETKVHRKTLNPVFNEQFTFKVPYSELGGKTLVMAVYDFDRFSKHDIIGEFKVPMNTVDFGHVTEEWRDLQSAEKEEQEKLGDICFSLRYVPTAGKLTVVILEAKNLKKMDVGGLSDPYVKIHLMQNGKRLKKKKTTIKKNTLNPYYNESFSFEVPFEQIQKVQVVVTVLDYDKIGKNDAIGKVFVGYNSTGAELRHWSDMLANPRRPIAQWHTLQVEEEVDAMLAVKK

Residue numbers refer to the chain shown, from its start. Where two headings read alike, the source gives them in different places. These are yes or no findings as the source states them, for the method shown. Binding seen in cells or lysates may run through a third protein. Some entries that bind do so weakly or less than the wild type. For part of these data: Tags and fused reporters may be left off the sequences shown.

Test [1] deals with Cav2.2 channel (α1B subunit co-expressed with auxiliary β and α2δ subunits) (rat | human) (UniProt Q02294+P54284+P54290). Description: co-IP; lysates of transfected HEK293T cells in Nonidet P-40 buffer (100 mM NaCl, 1 mM EDTA, 0.5% Nonidet P-40 Substitute, 20 mM Tris/HCl pH 7.4); antibody 3 h at 4 °C, Protein G Dynabeads, 5 washes, Western blot; with or without co-expressed KCTD proteins. Background: In western blotting, separated proteins are transferred to a membrane and probed.

For test [2], the target named is T1, Myc-tagged intracellular C-terminal domain of GB2 (mouse) (UniProt Q80T41).
T1 sequence: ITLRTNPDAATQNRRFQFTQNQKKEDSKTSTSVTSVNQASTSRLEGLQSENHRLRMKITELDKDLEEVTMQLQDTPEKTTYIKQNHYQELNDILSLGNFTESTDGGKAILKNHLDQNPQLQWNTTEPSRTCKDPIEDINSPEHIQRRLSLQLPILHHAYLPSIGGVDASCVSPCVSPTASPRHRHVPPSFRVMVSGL
The description is as above.

Test [3] addresses eGFP-tagged Syt11 (UniProt Q9R0N3). The description is as above.
Test [4] has as its target T2, GB2-VC (UniProt Q80T41).
T2 sequence: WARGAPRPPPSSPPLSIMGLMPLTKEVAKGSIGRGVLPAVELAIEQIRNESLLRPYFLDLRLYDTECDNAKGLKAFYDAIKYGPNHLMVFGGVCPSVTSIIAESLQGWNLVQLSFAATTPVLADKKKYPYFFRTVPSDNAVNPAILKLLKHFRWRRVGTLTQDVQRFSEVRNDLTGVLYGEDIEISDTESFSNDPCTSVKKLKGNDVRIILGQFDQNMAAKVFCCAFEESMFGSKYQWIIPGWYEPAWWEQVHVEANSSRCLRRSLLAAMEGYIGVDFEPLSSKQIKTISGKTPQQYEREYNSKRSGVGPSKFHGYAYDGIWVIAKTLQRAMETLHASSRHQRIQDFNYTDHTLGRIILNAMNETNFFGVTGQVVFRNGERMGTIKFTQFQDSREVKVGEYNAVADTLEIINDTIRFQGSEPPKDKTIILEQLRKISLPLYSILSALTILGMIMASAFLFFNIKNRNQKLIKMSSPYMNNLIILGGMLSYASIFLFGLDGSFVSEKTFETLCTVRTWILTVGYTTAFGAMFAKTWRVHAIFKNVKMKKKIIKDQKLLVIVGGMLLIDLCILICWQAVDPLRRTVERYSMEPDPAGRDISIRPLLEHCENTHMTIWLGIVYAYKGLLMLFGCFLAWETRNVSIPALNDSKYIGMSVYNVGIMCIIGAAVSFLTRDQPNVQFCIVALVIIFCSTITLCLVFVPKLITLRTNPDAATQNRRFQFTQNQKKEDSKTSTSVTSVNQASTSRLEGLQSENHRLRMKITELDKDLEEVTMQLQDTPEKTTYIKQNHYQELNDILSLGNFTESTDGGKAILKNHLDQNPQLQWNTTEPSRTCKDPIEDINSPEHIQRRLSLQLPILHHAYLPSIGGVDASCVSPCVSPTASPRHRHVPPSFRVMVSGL
The test is described as above.

The target of a further test is T3, HA-tagged GB2 (UniProt Q80T41).
T3 sequence: T2 sequence
The test is described as above.

For test [5], the target named is T2, GB2-VC. Description: split reporter; BiFC of Venus fragments VN and VC in transfected HEK293T cells, with or without KCTD16; confocal imaging.
For test [6], the target named is eGFP-tagged Syt11 (UniProt Q9R0N3). As to the kind of experiment: co-IP; lysates of transfected HEK293T cells in Nonidet P-40 buffer (100 mM NaCl, 1 mM EDTA, 0.5% Nonidet P-40 Substitute, 20 mM Tris/HCl pH 7.4); antibody 3 h at 4 °C, Protein G Dynabeads, 5 washes, Western blot; with or without co-expressed KCTD proteins. The source holds these as a separate data set.

As to “FLAG-tagged KCTD16 (from UniProt Q5DTY9 1-427)”, the binding entry in test [1] and in test [2] was “binds” in each case.
For KCTD8 (from UniProt Q50H33 1-476), in the test with eGFP-tagged Syt11 [3], the binding entry is listed as “no binding”.
Take “KCTD16 (tag not told; BiFC validation and Fig. EV2B) (from UniProt Q5DTY9 1-427)”: the binding entry in the test with GB2-VC [4] and with HA-tagged GB2 was “binds” each time.
For “Myc-tagged KCTD16 (from UniProt Q5DTY9 1-427)”, the binding result with eGFP-tagged Syt11 [3] is recorded as “binds”.
Take “Myc-tagged Syt11 (from UniProt Q9R0N3 1-430)”: in test [1], the binding result is listed as “binds”.
On to Syt1-VN (from UniProt P46096 1-421), for which the binding entry with GB2-VC [5] is “no binding”.

B1: HA-tagged GB2Y902A (receptor, UniProt Q80T41 41-940)
chain: T2 sequence with Y862A
Take B1: in the test with eGFP-tagged Syt11 [6], the binding result was “no binding”.
